# Where a structure was tested more than once in an assay, its records may differ in their call.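 A percent growth of 40 corresponds to 60% growth inhibition; 0 means no net growth; -100 means all cells died. Active threshold: below 10.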 Some entries of the source have several records that differ or are many. The other results are left out here. The source may hold further records. These are repeated runs of one drug, at the concentration stated with the values; one value stands for one run. Additions like (4×) give the number of equal values in this list.
# Columns and labels:
# CAKI-1 renal = experiment: NCI-60 one-dose screen, 48 h (100 = growth as untreated, 0 = no growth, -100 = all killed); settings: 25 µM
# A498 renal = experiment: as above; settings: 0.25 µM
compound,measurement,setting,value
COc1cccc2c1C(=O)c1c(O)c3c(c(O)c1C2=O)C[C@@](O)(C(=O)CO)C[C@@H]3OC1CC(N)C(O)C(C)O1 (stereo not given in full),growth,CAKI-1 renal; runs of 1992,"inactive: 16.7, 10.2, 10.5 (2×), 14.1, 10.8, 13.8, 29.4, 12.6, 23.7, 123, 13.5% and active: 6.25, 5.85, -40.7, -20, -42.4, -32.5, -27.2, 9.27, 2.42, -17, -25.7 (2×), 2.39, -1.74, 1.75, -12.2, -20.1, -29.7, -7.01, 5.12, -26.4, -28.1, -43.9, 0.949, -21.5, -18.4, 6.02, 2.41, -23.6, 4.41, -11.1, -1.18, 7.04, 6, 1.91, 8.4, 3.96, 8.3, -12.6, -6.82, -7.13, 4.5, -45.9, -67.3, -66.5, -73.6, -11.7 (2×), -0.0928, 4.94, -3.91, 2.08, -15.5, -9.23, -0.433, -16.4, -13.3, -0.901, 0.0857, 6.75, -21.1, -6.51, -2.89, 1.79, 0.105, 2.86, -11.5, -23.8, -25.6, 0.975, 2.69, -23.5, -39.9, -7.05, 3.93, -11, -4.44, -29.1, -0.924, -41.6, -2.21, -5.77, -3.67, 6.15, -4.08, -31.6, -9.34%"
same,growth,CAKI-1 renal; runs of 1993,"active: -17.1, 1.77, -30.1, -16.3, 0.996, -7.49, 9.06, 5.86, 5.28, 6.93, -17.3, 2.32, -13.2, -32.7, -10.3, 2.45, -9.61, -4.03, 8.61, -48.1, 7.81, 5.55, -7.07, -4.81, -23.3, -0.912, -12, -12.2, -24.6, -4.76, -1.14, -2.36, 2.07, -7.74, -40.9%"
same,growth,CAKI-1 renal; runs of 1994,"active: 1.7, -38.5 (2×), 3.2, 6.59, -27.8, -18.1, 7.33, 0.269, -14.1, 2.2, -6.33, -8.61, -38.4, -17.8, -0.648, -12.7, -5.86, 5.54, -9.93, -8.74, -11.8, -24.7, 1.73, -12.1, 6.9% and inactive: 76.1%"
same,growth,CAKI-1 renal; runs of 1995,"active: -29.9, -20.4, -7.41, -19.3, -16.2, -37.4, -27.7, -31.8, -5.42, 4.86, -11, 2.25, -21.6, -20.9, 5.46, -3.4, -15.8, -7.26, 0.706, 4.54, 0.508, -32.9, -49.8, -41.9, -47.8, -17.2, -7.44, -34.3, -8.16, -33.6, 1.42, -7.54% and inactive: 12.4, 65.2, 45.2, 12.7, 16.4%"
same,growth,CAKI-1 renal; runs of 1996,"active: -24.4, -6.92, -56.9, 9.02, -5.53, -15.9, -57.3, 1.66, -22.4, -13.5, -10.1, 3.5, -0.482, -13.2, 2.41, -15.1, 9.64, -21, -12.5, 9.24, -50.8, 7.41, -8.57, 5.88, -10.9, 2.88, -39.9, -30.4, -44.7, 9.93, -12.2, -32.2, 2.48, -18.1, 2.7, -8.38, -5.17, -7.83, -18.4, -3.29, -16.7, -18.5, -8.56, 0.225, -16.1, -2.11, 9.31% and inactive: 85.1, 21.5, 21.4, 13.8, 56.7, 20.7, 22.3, 20.1%"
same,growth,CAKI-1 renal; runs of 1997,"active: -13.4, -5.11, 2.93, -20.2, -11, -25.4, -20.9, -14.3, -19.3, -31.1, -15.1, -13.6, -6.17, -17.8, -3.77, -50.6, -61.5, -0.67, -40.6, -33.4, -5.1, -1.61, -15.9, -69.9, -26.6, -23.4, -12.7 (2×), -35.1, 4.28, 5.01, 0.947, -10, -21, -6.04, -18.8, -12.8, -7.58, -23, -14.5, -17.4, 4.7, 4.42% and inactive: 18.9%, 71.8%, 32.9%"
same,growth,CAKI-1 renal; runs of 1998,"active: -19.2, 1.95, -2.93, -57.8, -39.4, -28.8, -37.5, -35.1, -9.06, -25.2, 1.98, 4.66, -16.2, 1.43, -26.2, 2.89, -2.17, -8.29, -15.4, -19.7% and inactive: 12.4, 11.9, 16.4, 10.2%"
same,growth,CAKI-1 renal; runs of 1999,"active: -0.756, -17.2, 5.62, 2.18, -36.9, -56.5, -65.1, -60.5, -92, -52.2, 8.97, 0.433, -16.7, -100, 0.89, -70%"
same,growth,CAKI-1 renal; runs of 2000,"active: -8.82, -100, 6.77, -76.5%"
same,growth,A498 renal; runs of 2006,active: -4.74% and inactive: 51.8%
same,growth,A498 renal; runs of 2007,"inactive: 22.2, 37.8, 41.6 (2×), 34.5, 24, 48, 53.7, 54.1, 36.4, 49.9, 37, 39.9, 16.6, 147, 38.5, 25.9, 67.4, 11.8, 46.1, 30.3, 42.6, 14.4, 36.1, 22.7, 58.5 (2×), 57.8, 58.4, 61.8, 57.1, 56, 36.7, 45.5, 59.6, 48.8, 18.8, 25.4, 46.9, 34.7, 37.6, 33.8, 43.6, 72.2, 57.9% and active: 1.65%"
same,growth,A498 renal; runs of 2008,"inactive: 51.9, 62.5, 52.5, 46.7 (2×), 60.1, 61.9 (2×), 55.5, 18.8, 32.4, 48.5, 70.9 (2×), 50.7 (2×), 61.2, 46.5, 49.7, 58.4, 38.1, 74.5, 66, 64.4, 67, 57.1, 60.2, 64.3, 44.5, 48.3, 45.5, 117, 54.7, 37.2, 55.9, 19.9, 12.6, 66.8, 53.1, 36.6, 30.3, 14.3, 57.6, 54.1, 26.6, 46.9, 63, 59.5, 73.1, 56.8, 16.4, 29.5, 40.2, 60.6, 58.6, 19.1, 65.1%"
same,growth,A498 renal; runs of 2009,"inactive: 52.7, 50.7, 40.8, 38.8, 42.5, 59 (3×), 60.6, 63.2 (2×), 54.8, 56, 74.5, 58, 63, 42.4, 56.5 (2×), 49.8, 53.9, 41.4, 81.8, 59.9, 32.4, 43.1, 56.9, 50.9, 57.4 (2×), 60.8 (2×), 47.8, 62.6 (2×), 78.7, 55.3, 46, 58.3, 54.7 (2×), 29.5, 23.8, 57.5 (2×), 63.4, 50.1, 59.3, 32.9, 53.4, 33, 29.9, 25.9, 41.9, 80.2, 55.8, 42, 35, 46.9, 15.7, 94.7, 72.4, 49.6, 53.1, 34, 47.9, 50.8, 37.9, 54.3% and active: -1.98%, 2.47%"
same,growth,A498 renal; runs of 2010,"inactive: 68.1, 66.4, 40.9 (2×), 67.8, 52.9, 57, 55.2, 73.6, 52.7, 68.3, 64.3, 80.5, 78.4, 51, 56.2 (2×), 59.3, 50.8, 74.2, 37.7, 50, 43.6, 75.6, 70.5, 65, 35, 54.2, 78.7, 60.4, 55.5, 39.9, 30.2, 54.4, 42.4, 71.2, 43.8, 62.6, 36.4, 57.6, 64.1, 45.5, 59.5, 60.7, 20.9, 49.2, 66.7, 65.9, 56, 47, 38.4, 33, 58.9, 49.9, 46.7%"
same,growth,A498 renal; runs of 2011,"inactive: 54.7, 57.6, 64.7, 40.9, 47.6, 67.8, 56, 30.4, 32.3, 59.5, 65.6, 62.3, 72.5, 66.6, 66.7, 57.3, 63.5, 73.4, 56.7, 63, 66.3, 66, 57.5, 62.1, 59.2, 59, 55.8, 60.6, 69.5, 44.6, 42.6, 50.7, 47.8, 48, 49.3, 58.4, 44.1, 71.7, 52.3, 74.1, 43.8, 40.2, 31.6, 43.3, 36, 41.5, 31.2, 36.4, 24.8, 54.8, 65.5, 48.9, 60.3, 51.5, 59.1, 53, 17.6, 24.7, 23.2%"

# Reference: PubChem BioAssay (NCI)
